# Test results: the supplement of paper PMC7826260
# Some of the results follow. Viral Rep nickase domains cut single-stranded DNA in vitro for 1 h at 37 °C with 3 µM enzyme; only the middle of the 90-letter strands is printed. The score is log2 (uncut reads / reads without enzyme); the lower, the more was cut; hits are not called. The scaling is to total reads; values above 0 arise when much of the pool is cut.
# How the values were obtained:
# Experiment in all cases: uncleaved DNA left, log2 of reads against the no-enzyme library (log2 ratio); higher = less cleavage (more negative = more Rep cleavage of the k-mer); sequences stand for … in CTCGTCCG…ACCGGAGA
# [1] = tested on: T1, Rep nickase domain of Muscovy duck circovirus
# T1 sequence (Rep 1-111, printed without the tag): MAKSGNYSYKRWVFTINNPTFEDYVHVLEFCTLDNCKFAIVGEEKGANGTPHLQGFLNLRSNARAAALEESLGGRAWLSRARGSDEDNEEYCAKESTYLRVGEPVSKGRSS
# Procedure: (§1)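 A pool of 90-nt single-stranded DNAs with seven random bases just before the constant AC of the nick site (name = the seven bases) was cut by 3 µM recombinant His6-SUMO-tagged Rep nickase domain (300 nM DNA, 50 mM HEPES pH 8.0, 50 mM NaCl, 1 mM MnCl2, 1 h, 37 °C, three replicates). Uncut DNA was amplified and sequenced.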
# [2] = tested on: T2, Rep nickase domain of banana bunchy top virus
# T2 sequence (Rep 1-94, printed without the tag): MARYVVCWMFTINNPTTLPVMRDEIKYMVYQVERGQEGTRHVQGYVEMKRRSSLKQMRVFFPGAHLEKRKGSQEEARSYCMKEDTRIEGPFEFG
# Procedure: as §1
# [3] = tested on: T3, Rep nickase domain of cabbage leaf curl virus
# T3 sequence (Rep 1-116, printed without the tag): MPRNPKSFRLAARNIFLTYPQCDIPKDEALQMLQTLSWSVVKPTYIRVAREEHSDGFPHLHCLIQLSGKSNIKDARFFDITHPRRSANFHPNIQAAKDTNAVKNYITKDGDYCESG
# Procedure: as §1
# [4] = tested on: T4, Rep nickase domain of chickpea chlorotic dwarf virus
# T4 sequence (Rep 1-124, printed without the tag): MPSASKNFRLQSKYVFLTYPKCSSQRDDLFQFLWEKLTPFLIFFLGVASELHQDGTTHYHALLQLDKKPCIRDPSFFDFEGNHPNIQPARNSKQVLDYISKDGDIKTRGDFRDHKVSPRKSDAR
# Procedure: as §1
# [5] = tested on: T5, Rep nickase domain of faba bean necrotic yellows virus
# T5 sequence (Rep 1-98, printed without the tag): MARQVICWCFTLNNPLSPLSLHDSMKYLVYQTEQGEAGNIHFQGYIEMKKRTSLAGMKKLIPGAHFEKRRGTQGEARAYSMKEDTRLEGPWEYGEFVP
# Procedure: as §1
# [6] = tested on: T6, Rep nickase domain of maize striate mosaic virus
# T6 sequence (Rep 1-117, printed without the tag): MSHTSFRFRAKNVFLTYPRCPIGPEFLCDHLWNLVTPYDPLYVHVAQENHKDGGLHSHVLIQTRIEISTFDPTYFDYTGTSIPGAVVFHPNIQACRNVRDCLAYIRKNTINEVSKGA
# Procedure: as §1
# [7] = tested on: T7, Rep nickase domain of porcine circovirus 2
# T7 sequence (Rep 2-116, printed without the tag): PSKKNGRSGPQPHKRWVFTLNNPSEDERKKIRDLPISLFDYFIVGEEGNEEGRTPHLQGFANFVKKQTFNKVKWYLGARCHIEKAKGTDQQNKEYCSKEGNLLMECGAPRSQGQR
# Procedure: as §1
# [8] = tested on: T8, Rep nickase domain of tomato golden mosaic virus
# T8 sequence (Rep 1-124, printed without the tag): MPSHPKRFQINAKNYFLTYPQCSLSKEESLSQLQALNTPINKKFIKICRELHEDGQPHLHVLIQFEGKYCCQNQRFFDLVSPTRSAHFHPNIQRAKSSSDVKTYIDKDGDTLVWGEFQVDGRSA
# Procedure: as §1
# [9] = tested on: T9, Rep nickase domain of tomato yellow leaf curl virus
# T9 sequence (Rep 1-136, printed without the tag): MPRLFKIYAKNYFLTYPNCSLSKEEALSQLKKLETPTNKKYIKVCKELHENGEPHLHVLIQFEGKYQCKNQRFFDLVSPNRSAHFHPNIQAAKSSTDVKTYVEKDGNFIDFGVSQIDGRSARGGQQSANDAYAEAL
# Procedure: as §1
# [10] = tested on: T10, Rep nickase domain of wheat dwarf virus
# T10 sequence (Rep 1-137, printed without the tag): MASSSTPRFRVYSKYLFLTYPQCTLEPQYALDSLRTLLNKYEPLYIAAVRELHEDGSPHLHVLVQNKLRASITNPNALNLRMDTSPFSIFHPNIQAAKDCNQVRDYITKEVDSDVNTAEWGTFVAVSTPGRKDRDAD
# Procedure: as §1
Sequence,uncleaved DNA left (log2) [1],uncleaved DNA left (log2) [2],uncleaved DNA left (log2) [3],uncleaved DNA left (log2) [4],uncleaved DNA left (log2) [5],uncleaved DNA left (log2) [6],uncleaved DNA left (log2) [7],uncleaved DNA left (log2) [8],uncleaved DNA left (log2) [9],uncleaved DNA left (log2) [10]
TGGGGAT,-0.134,-0.025,0.268,1.59,-0.0713,1.84,0.0723,0.0133,-0.158,-0.0358
CAATGGT,-0.635,-0.086,-1.05,0.389,-0.111,0.21,-2.05,-1.67,-0.295,-1.9
AAGGATC,0.0351,-0.0477,0.198,1.24,-0.0814,1.26,0.207,0.108,-0.181,-0.0922
TGGAGTG,-0.0503,-0.0988,-0.354,-0.262,-0.182,-0.429,0.0977,-0.146,-0.105,-0.0307
ACACTGC,0.144,0.0282,-0.397,-0.395,0.00218,-0.814,0.183,0.144,0.0128,-0.0412
AGAGCTG,-0.0497,-0.00106,0.17,1.05,0.0117,1.72,0.063,0.0633,-0.088,-0.0296
GTACATA,-0.103,0.0775,0.442,1.11,-0.0203,1.78,0.0953,0.0393,-0.0937,0.139
CCTCCAA,-0.0788,0.00749,-0.0052,-0.12,0.0158,-0.494,0.0437,-0.102,-0.00386,0.0752
GTAACTA,0.102,0.124,0.358,0.736,0.0976,1.68,0.114,0.228,0.189,0.149
GTTGATG,-0.0506,-0.15,-0.107,-0.0621,-0.0202,-0.531,-0.012,-0.137,-0.0787,-0.203
AGACACT,0.0947,-0.0303,0.761,1.41,0.0106,2.12,0.0272,-0.0224,0.11,0.145
CTAGCAA,-0.148,0.132,-0.135,-0.275,-0.0706,-1.12,-0.0641,-0.077,-0.0381,0.035
ATGGAAG,-0.0689,-0.0339,-0.667,-0.479,-0.0291,-1.03,0.144,-0.0665,-0.12,-0.0516
CGACCAA,-0.0317,0.00573,0.0658,0.366,-0.0167,0.311,-0.0564,-0.0991,0.000265,0.12
TATGCGC,0.049,0.0451,-0.736,0.459,0.0439,-0.906,0.189,-0.0613,0.0823,-0.00471
CACCCGT,-0.139,-0.115,-0.624,-2.05,-0.0549,-1.01,-0.232,-0.209,-0.301,-0.236
GACTCAC,0.0976,0.113,0.209,0.518,0.0539,0.595,-0.337,0.0893,0.212,0.178
GCATATC,0.121,0.0964,0.192,0.536,0.0569,-0.146,0.116,0.0365,0.18,0.271
GAATTAT,-1.15,-0.111,-3.01,-2.58,-0.14,-0.582,-3.24,-1.67,0.0122,-2.68
ATTGACC,-0.101,-0.0164,-0.0113,0.646,-0.109,0.798,0.015,-0.0458,-0.0541,-0.05
ATTCCTA,-0.142,-0.0915,-0.159,-1.18,-0.0318,-0.652,-1.3,-0.125,-0.146,-0.0346
TATCTGG,0.11,0.0461,0.362,0.672,0.048,0.673,0.148,0.182,-0.0203,0.147
CAGCATC,0.0499,0.0749,-0.00381,-0.406,0.0446,-0.567,-0.00915,0.000794,-0.0129,0.0477
GGTCCTA,0.00835,0.144,0.422,1.1,-0.00913,1.88,0.0392,0.129,0.125,0.164
AGCAGTA,-0.0531,0.0128,-0.06,-0.187,0.0666,0.246,-0.674,-0.102,-0.00167,0.0994
AATGGGT,0.107,0.141,0.404,1.67,0.159,1.81,0.363,0.245,-0.0558,0.15
TGTATGG,0.134,0.0672,0.436,0.864,0.00449,0.855,0.185,0.0868,-0.0423,0.0588
AGAGTGA,-0.0512,0.0343,-0.00559,0.249,-0.0192,-0.128,0.052,-0.004,-0.0244,-0.0182
GAAGCGA,0.0958,0.106,-0.63,-0.19,0.0956,-0.708,0.156,0.0584,0.127,0.0714
TTCTACC,-2.14,-0.21,-0.238,-2.2,-0.266,-0.261,-2.76,-0.193,-0.0874,-0.293
